In patent publication US8846873B2, “Antibodies directed to GPNMB and uses thereof” (Celldex Therapeutics, Inc., priority 2004, dated 2014):

What was measured:
GPNMB = target: T1, GPNMB (Homo sapiens, UniProt Q14956); assay: Binning of antibodies (Luminex competitive binding); conditions: three bins of six anti-GPNMB antibodies
T1 construct: made in house; host or cells: HEK 293
T1 sequence (Q14956 23-492): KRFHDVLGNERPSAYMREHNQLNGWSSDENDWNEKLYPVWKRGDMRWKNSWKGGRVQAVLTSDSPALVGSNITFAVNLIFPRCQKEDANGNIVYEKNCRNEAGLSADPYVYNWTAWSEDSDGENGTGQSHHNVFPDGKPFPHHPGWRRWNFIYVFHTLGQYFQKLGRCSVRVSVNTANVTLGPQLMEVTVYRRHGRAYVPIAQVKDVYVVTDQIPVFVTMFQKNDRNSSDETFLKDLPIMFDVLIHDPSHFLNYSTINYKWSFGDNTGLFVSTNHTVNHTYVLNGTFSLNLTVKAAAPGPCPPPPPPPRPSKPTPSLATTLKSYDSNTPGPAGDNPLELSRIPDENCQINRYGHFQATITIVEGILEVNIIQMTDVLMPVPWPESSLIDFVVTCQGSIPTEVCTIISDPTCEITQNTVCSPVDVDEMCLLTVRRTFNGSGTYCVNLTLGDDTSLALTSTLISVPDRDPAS
Procedure: Certain antibodies, described herein were binned in accordance with the protocol described in U.S. Patent Application Publication No. 20030157730. MxhIgG conjugated beads are prepared for coupling to primary antibody. The volume of supernatant needed is calculated using the following formula: (n+10)×50 μL (where n=total number of samples on plate). Where the concentration is known, 0.5 μg/mL is used. Bead stock is gently vortexed, then diluted in supernatant to a concentration of 2500 of each bead per well or 0.5×10^5/mL and incubated on a shaker in the dark at RT overnight, or 2 hours if at a known concentration of […]. Following aspiration, 50 μL of each bead is added to each well of filter plate, then washed once by adding 100 μL/well wash buffer and aspirating. Antigen and controls are added to filter plate 50 μL/well then covered and allowed to incubate in the dark for 1 hour on shaker. Following a wash step, a secondary unknown antibody is added at 50 μL/well using the same dilution (or concentration if known) as is used for the primary antibody. The plates are then incubated in the dark for 2 hours at RT on shaker followed by a wash step. Next, 50 μL/well biotinylated mxhIgG diluted 1:500 is added and allowed to incubate in the dark for 1 hour on shaker at RT. […]

GPNMB expressing cells = assay: FACS analysis of binding to GPNMB expressing cells
Procedure: The specificity of anti-GPNMB antibodies to cell membrane-bound GPNMB protein expressed by melanoma cancer cell line, UACC-62 was analyzed by FACS analysis. […] Isotype matched antibody pK16.3 was used as a negative control. Cells were washed twice with PBS (Ca and Mg free), incubated with Versene at 37° C. until cells detached, counted and aliquoted at 1 million cells per assay tube. Cells were then washed twice and resuspended in ice-cold FACS buffer (0.01M HEPES, 0.15M NaCl, 0.1% NaN3 and 4% FBS). Primary antibody at 1 μg/mL was added to the cells. Cells were incubated on ice for 30 min, washed 2-3 times and resuspended in 1 mL of ice-cold FACS buffer. […] After washing 3 times with 1 mL of ice-cold FACS buffer, cells were fixed with 0.5-1 mL of 1% formaldehyde in PBS and analyzed by flow cytometry.
UACC-62 and TK10 cells were plated onto flat bottom 96-well tissue culture plates (Becton Dickinson, Franklin Lakes, N.J., USA). […] On days 8-10, all plates were Giemsa stained and colonies on the plates were counted.
Lymphoma or leukemia cell lines were mixed with methylcellulose base media (R&D Systems, USA) and in various concentrations of unconjugated and Auristatin E-conjugated 1.15.1 antibody before plating onto 6-well tissue culture plates (Becton Dickinson, Franklin Lakes, N.J., USA). […] On days 14-18, colonies on the plates were counted.

B1: Mab2.3.1: human anti-GPNMB antibody; VH SEQ ID NO: 200, VL SEQ ID NO: 209 (antibody, listed as Homo sapiens, V domains shown)
VH: [about 100 residues not printed]DFFGSGSLLYFDYWGQGTLVTVSSA
VL: DIVMTQTPLSLSVTPGQPASISCKSSQSLLHSGGKTYLYWYLQRPGQPPQLLIYEVSNRFSGVPDRFSGSGSGTDFTLKISRVEAEDVGVYYCMQSIHLPLTFGGGTKVEIKR
Question: Which results are given for B1?
Answer: Bin (GPNMB): Bin 2; binding to GPNMB expressing cells (GPNMB expressing cells): does not bind to GPNMB expressing cells
